# From a collection of fitness landscapes (doi:10.1016/j.celrep.2020.107928)
# Whole data set: some 81,000 sequences, median “one-hybrid fitness for binding NBS DNA” near -0.1, cut for the highest 2% near 0.36. This is one part of the list.
# B1: Caulobacter ParB omega fusion; a variant is named by its letters at X, in order, B8GW30 (parent)
# chain: MESVVVGEPGMSEGRRGLGRGLSALLGEVDAAPAQAPGEQLGGSREAPIEILQRNPDQPRRTFREEDLEDLSNSIREKGVLQPILVRPSPDTAGEYQIVAGERAWRAAQRAGLKTVPIMVRELDDLAVLEIGIIENVQRADLNVLEEALSYKVLMEKFERTQENIAQTIGKSXSHVANXMRLLXLPDEVQSYLVSGELTAXHARAIAAAADPVALAKQIIEGGLSVRETEALARKAPNLSAGKSKGGRPPRVKDTDTQALESDLSSVLGLDVSIDHRGSTGTLTITYATLEQLDDLCNRLTRGI
# Variants of: B1
# Experiment: one-hybrid fitness for binding NBS DNA (the Noc-binding site; scaled: cognate 1, non-cognate 0); higher = stronger binding
# Conditions: with NBS DNA site
# Procedure, shortened: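 Caulobacter ParB libraries with four specificity codons randomised were screened by bacterial one-hybrid selection in the E. coli USO strain, using a HIS3 reporter whose site lies 19 bp from the promoter. Selection ran for 48 hours at 37°C on M9 lacking histidine, with 0.1 mM IPTG and 5 mM 3-AT. Plasmids were Illumina-sequenced before and after selection, three replicate libraries were pooled, and variants with under 10 reads were dropped. Fitness is the log change in each variant's read ratio to wild type, rescaled against the cognate and non-cognate sites.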
row,Variant,one-hybrid fitness for binding NBS DNA
1,VDWC,≤ 0.2
2,QSHN,≤ 0.2
3,AHKF,≤ 0.2
4,LAHN,≤ 0.2
5,KQYS,≤ 0.2
6,HIVW,≤ 0.2
7,ITYV,≤ 0.2
8,AMST,≤ 0.2
9,DQRE,≤ 0.2
10,YFRT,≤ 0.2
11,GSGR,≤ 0.2
12,VFDW,≤ 0.2
13,DTPN,≤ 0.2
14,CNLC,≤ 0.2
15,HLLA,≤ 0.2
16,QRLY,0.447
17,RPKT,≤ 0.2
18,GNKC,≤ 0.2
19,HRYN,≤ 0.2
20,EKAF,≤ 0.2
21,IYTL,≤ 0.2
22,DLWV,≤ 0.2
23,TRPI,≤ 0.2
24,VVLA,≤ 0.2
25,PPRP,≤ 0.2

row,Variant,one-hybrid fitness for binding NBS DNA
1,ASLR,≤ 0.2
2,MNSR,≤ 0.2
3,GTRL,≤ 0.2
4,KGLR,≤ 0.2
5,YNQY,≤ 0.2
6,YHQA,≤ 0.2
7,LTYV,≤ 0.2
8,LRRG,≤ 0.2
9,EQAC,≤ 0.2
10,DCKS,≤ 0.2
11,SPMG,≤ 0.2
12,YRQY,≤ 0.2
13,QIAA,≤ 0.2
14,SRSH,≤ 0.2
15,QVMI,≤ 0.2
16,LWFV,≤ 0.2
17,ASNA,≤ 0.2
18,VRWW,≤ 0.2
19,AFVK,≤ 0.2
20,HACW,≤ 0.2
21,PEYS,≤ 0.2
22,YHPS,≤ 0.2
23,YHTA,≤ 0.2
24,RIDL,≤ 0.2
25,PLSQ,≤ 0.2

row,Variant,one-hybrid fitness for binding NBS DNA
1,HCDR,≤ 0.2
2,LVKR,≤ 0.2
3,VVKE,≤ 0.2
4,VHHT,≤ 0.2
5,PVWM,≤ 0.2
6,ATPD,≤ 0.2
7,KVLG,≤ 0.2
8,YPKL,≤ 0.2
9,CSNV,≤ 0.2
10,QDMC,≤ 0.2
11,CLHY,≤ 0.2
12,NHDV,≤ 0.2
13,CCQC,≤ 0.2
14,VLGV,≤ 0.2
15,RCTV,≤ 0.2
16,DRMV,≤ 0.2
17,QQMQ,≤ 0.2
18,IHYS,≤ 0.2
19,RCLA,≤ 0.2
20,RTKC,0.31
21,HVQV,≤ 0.2
22,PSMI,≤ 0.2
23,YRQR,≤ 0.2
24,MKRL,≤ 0.2
25,SPYT,≤ 0.2

row,Variant,one-hybrid fitness for binding NBS DNA
1,TTVK,≤ 0.2
2,RGNC,≤ 0.2
3,MTCY,≤ 0.2
4,ISIY,≤ 0.2
5,ADKW,≤ 0.2
6,SQGT,≤ 0.2
7,EEKY,≤ 0.2
8,VLDM,≤ 0.2
9,SFVT,≤ 0.2
10,FYYG,≤ 0.2
11,DNEV,≤ 0.2
12,TVKA,≤ 0.2
13,TDGD,≤ 0.2
14,TTHY,≤ 0.2
15,ISNW,≤ 0.2
16,RANF,≤ 0.2
17,RNFA,≤ 0.2
18,KMPG,≤ 0.2
19,GGHS,≤ 0.2
20,GDMG,≤ 0.2
21,LAVR,≤ 0.2
22,PENR,≤ 0.2
23,RTNC,0.238
24,QNRE,≤ 0.2
25,RPFK,≤ 0.2

row,Variant,one-hybrid fitness for binding NBS DNA
1,RETF,≤ 0.2
2,IGAT,≤ 0.2
3,RIIS,≤ 0.2
4,LGHT,≤ 0.2
5,IRSF,≤ 0.2
6,APSV,≤ 0.2
7,VGPC,≤ 0.2
8,HHML,≤ 0.2
9,CPNL,≤ 0.2
10,IFDS,≤ 0.2
11,AWYG,≤ 0.2
12,DTMG,≤ 0.2
13,TKRS,≤ 0.2
14,REDE,≤ 0.2
15,QLSN,≤ 0.2
16,ARRW,≤ 0.2
17,QKEE,≤ 0.2
18,VSNK,≤ 0.2
19,PNNV,≤ 0.2
20,CQGA,≤ 0.2
21,LTHI,≤ 0.2
22,MLRG,≤ 0.2
23,EPAP,≤ 0.2
24,KAHR,≤ 0.2
25,DCTR,≤ 0.2

row,Variant,one-hybrid fitness for binding NBS DNA
1,QYTD,≤ 0.2
2,TITC,≤ 0.2
3,QKPY,≤ 0.2
4,RMML,≤ 0.2
5,TQTS,≤ 0.2
6,FPTG,≤ 0.2
7,MRVR,≤ 0.2
8,KVSW,≤ 0.2
9,SINS,≤ 0.2
10,KRAS,0.409
11,HCGP,≤ 0.2
12,RYQG,≤ 0.2
13,QVKE,≤ 0.2
14,EHQS,≤ 0.2
15,AIMR,≤ 0.2
16,FRLV,≤ 0.2
17,KTLQ,≤ 0.2
18,RVVF,≤ 0.2
19,AMTW,≤ 0.2
20,HYQE,≤ 0.2
21,RWAA,≤ 0.2
22,RNSD,≤ 0.2
23,WNQG,≤ 0.2
24,ETCR,≤ 0.2
25,RKII,≤ 0.2

row,Variant,one-hybrid fitness for binding NBS DNA
1,SSLA,≤ 0.2
2,LADP,≤ 0.2
3,WNAL,≤ 0.2
4,TPGM,≤ 0.2
5,IRNI,≤ 0.2
6,QYDS,0.203
7,HKKT,≤ 0.2
8,EPFG,≤ 0.2
9,GWLI,0.404
10,AWPS,≤ 0.2
11,QNTC,≤ 0.2
12,MRGY,≤ 0.2
13,QFMG,≤ 0.2
14,RQNP,≤ 0.2
15,RCKL,≤ 0.2
16,WYAL,≤ 0.2
17,DLDR,≤ 0.2
18,IMHM,≤ 0.2
19,TNSN,≤ 0.2
20,HTKV,≤ 0.2
21,YCKK,≤ 0.2
22,RLTV,≤ 0.2
23,SKKG,≤ 0.2
24,YSIG,≤ 0.2
25,NYNM,≤ 0.2

row,Variant,one-hybrid fitness for binding NBS DNA
1,VCNA,≤ 0.2
2,AYNH,≤ 0.2
3,MTDS,≤ 0.2
4,HPLQ,≤ 0.2
5,GGMD,≤ 0.2
6,ASHD,≤ 0.2
7,KMKC,≤ 0.2
8,QLYI,≤ 0.2
9,FASD,≤ 0.2
10,QAIV,≤ 0.2
11,FRQV,≤ 0.2
12,YDMS,≤ 0.2
13,FAKS,≤ 0.2
14,GPPK,≤ 0.2
15,MMGR,≤ 0.2
16,TPEY,≤ 0.2
17,NMMP,≤ 0.2
18,NSHK,≤ 0.2
19,PDEG,≤ 0.2
20,FKYR,≤ 0.2
